In all, about 310,000 compounds went through this assay and about 2,200 (0.71%) showed an effect of 50% or more. Effects have a minus sign here. The list shows a part of the results.

For this test, the target named is human ether-à-go-go-related gene (hERG) potassium channel (human, UniProt Q12809). Nature of the test: primary screen, population patch clamp on CHO cells stably expressing hERG.
human ether-à-go-go-related gene (hERG) potassium channel, sequence (Q12809 whole entry, looked up): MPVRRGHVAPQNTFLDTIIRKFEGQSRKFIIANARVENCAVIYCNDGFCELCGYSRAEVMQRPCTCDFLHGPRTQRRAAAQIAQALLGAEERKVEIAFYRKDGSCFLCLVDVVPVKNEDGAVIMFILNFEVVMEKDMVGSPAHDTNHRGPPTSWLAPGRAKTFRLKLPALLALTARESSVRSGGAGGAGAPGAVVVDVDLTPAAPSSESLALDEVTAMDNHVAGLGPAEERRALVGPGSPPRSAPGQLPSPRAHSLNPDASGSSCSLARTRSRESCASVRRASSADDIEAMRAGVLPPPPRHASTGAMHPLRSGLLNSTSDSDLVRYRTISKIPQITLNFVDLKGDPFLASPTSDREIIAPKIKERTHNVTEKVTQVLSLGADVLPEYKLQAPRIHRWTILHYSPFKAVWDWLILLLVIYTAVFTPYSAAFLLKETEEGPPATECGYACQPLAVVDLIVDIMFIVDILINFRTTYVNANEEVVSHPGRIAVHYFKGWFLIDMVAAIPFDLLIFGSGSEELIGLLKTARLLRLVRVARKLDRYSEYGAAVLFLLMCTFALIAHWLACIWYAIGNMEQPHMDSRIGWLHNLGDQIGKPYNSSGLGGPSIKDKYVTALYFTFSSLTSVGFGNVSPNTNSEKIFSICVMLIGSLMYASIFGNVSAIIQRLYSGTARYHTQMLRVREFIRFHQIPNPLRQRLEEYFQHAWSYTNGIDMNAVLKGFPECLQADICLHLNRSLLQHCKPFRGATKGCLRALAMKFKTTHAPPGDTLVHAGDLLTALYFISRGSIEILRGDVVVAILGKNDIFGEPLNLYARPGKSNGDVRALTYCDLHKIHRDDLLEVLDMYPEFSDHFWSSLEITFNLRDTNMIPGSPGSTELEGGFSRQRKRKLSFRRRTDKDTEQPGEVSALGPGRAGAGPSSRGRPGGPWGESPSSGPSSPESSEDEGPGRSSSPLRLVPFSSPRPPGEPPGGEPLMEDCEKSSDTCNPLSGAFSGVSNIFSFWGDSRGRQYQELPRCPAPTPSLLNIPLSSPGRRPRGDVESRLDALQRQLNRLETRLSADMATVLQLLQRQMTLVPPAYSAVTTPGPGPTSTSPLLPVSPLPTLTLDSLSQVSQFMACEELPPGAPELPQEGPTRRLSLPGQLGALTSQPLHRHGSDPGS
As for `O=C(NNC(=S)NC(=O)c1ccccc1[N+](=O)[O-])c1ccccc1`, the “hERG current change (%, negative = inhibition) at 1uM” value is listed as 11.7%.

Regarding `N#C/C(=N\Nc1ccc(F)cc1)C(=N)N1CCCCCC1`, the “hERG current change (%, negative = inhibition) at 1uM” value was found to be 5.96%.

As for `CCC(=O)N1CCc2cc(Br)cc(S(=O)(=O)NCCN3CCCCC3CC)c21` (stereo not shown), the “hERG current change (%, negative = inhibition) at 1uM” value is recorded as -7.81%.

On to `Cc1ccc(C(=O)c2c[nH]cc2-c2ccccc2)cc1`, for which the “hERG current change (%, negative = inhibition) at 1uM” value was found to be 7.18%.

Turning to `CCc1nc(N2CCN(C(=S)NCCCOC)CC2)c2c3c(sc2n1)CCCC3`, the “hERG current change (%, negative = inhibition) at 1uM” value is on record as 8.02%.

For `CCOc1ccc(NC(=O)Cc2ccc(NC3=NC4CS(=O)(=O)CC4S3)cc2)cc1` (stereo not shown), the “hERG current change (%, negative = inhibition) at 1uM” value stood at 1.77%.

In the case of `O=C(O)COc1ccccc1/C=N/NC(=O)C(O)c1ccccc1` (stereo not shown), the “hERG current change (%, negative = inhibition) at 1uM” value is listed as 8.28%.

Turning to `CCOc1ccc(C(=O)NC(C(=O)NCc2ccccc2OC)C(C)C)cc1` (stereo not shown), the “hERG current change (%, negative = inhibition) at 1uM” value is given as 11.3%.

Regarding `O=C(CSc1ccccc1)N1CCCC(Nc2ccccc2)C1` (stereo not shown), the “hERG current change (%, negative = inhibition) at 1uM” value is listed as 4.04%.

`COc1cccc(O)c1CN1CCCC(C(=O)c2cccc(C(F)(F)F)c2)C1` (stereo not shown): the “hERG current change (%, negative = inhibition) at 1uM” value stood at 0.0042%.

As to `COc1ccc(N(CC(=O)NCCSC2CCCCC2)S(=O)(=O)c2ccccc2)c(OC)c1`, the “hERG current change (%, negative = inhibition) at 1uM” value was 5.71%.

As to `Cc1ccc(CCNC(=O)C2CCN(S(=O)(=O)c3cccc4cccnc34)CC2)cc1`, the “hERG current change (%, negative = inhibition) at 1uM” value is 10.3%.

Regarding `O=C(Nc1cccc(S(=O)(=O)N2CCCC2)c1)c1cccc(OC(F)F)c1`, the “hERG current change (%, negative = inhibition) at 1uM” value was -5.35%.

In the case of `O=C(CCC1CCCC1)NCCS(=O)(=O)N1CCN(c2ccc(F)cc2)CC1`, the “hERG current change (%, negative = inhibition) at 1uM” value is reported as -17.9%.

Take `c1ccc(Cc2nn[nH]n2)cc1`: the “hERG current change (%, negative = inhibition) at 1uM” value is listed as 7.6%.

Turning to `Cc1ccc(S(=O)(=O)NC(=O)COc2ccccc2C)c(C)c1`, the “hERG current change (%, negative = inhibition) at 1uM” value is -8.68%.

`Cc1csc(NC(=O)c2ccc(Cl)cc2[N+](=O)[O-])n1`: the “hERG current change (%, negative = inhibition) at 1uM” value is on record as -20.2%.

Consider `CCN1C(Nc2ccccc2)=NC[C@@H]1C`, for which the “hERG current change (%, negative = inhibition) at 1uM” value came out at 13%.

`O=C(c1ccccc1Br)N1CCc2c([nH]c3ccccc23)C1`: the “hERG current change (%, negative = inhibition) at 1uM” value is given as 16.1%.

For the molecule `CC1CCC(NC(=O)CN2C(=O)NC3(CCCCCC3)C2=O)CC1` (stereo not shown), the “hERG current change (%, negative = inhibition) at 1uM” value was -0.921%.

In the case of `C/C(=N\NS(=O)(=O)c1c(C)cc(C)cc1C)c1ccncc1`, the “hERG current change (%, negative = inhibition) at 1uM” value is on record as 2.35%.

`COc1ccc(NC(=O)c2ccc3nc[nH]c3c2)c(OC)c1`: the “hERG current change (%, negative = inhibition) at 1uM” value is recorded as -0.49%.

On to `COc1ccc(C2=NOC3(CC(=O)N(c4ccc(Cl)cc4)C3=O)C2)c(OC)c1` (stereo not shown), for which the “hERG current change (%, negative = inhibition) at 1uM” value was -4.92%.

For `OCC1(Cc2ccccc2)CCN(Cc2ccc(C(F)(F)F)cc2)CC1`, the “hERG current change (%, negative = inhibition) at 1uM” value was -6.85%.

With `CN1CC=C(c2c[nH]c3ccccc23)CC1`, the “hERG current change (%, negative = inhibition) at 1uM” value is 5.59%.

Consider `CC12CCC3C(CCC4N(CCO)CCC34C)C1CCC2O.Cl` (stereo not shown), for which the “hERG current change (%, negative = inhibition) at 1uM” value is given as 20.4%.

Consider `COc1ccc2cc(C3(C)NC(=O)NC3=O)ccc2c1` (stereo not shown), for which the “hERG current change (%, negative = inhibition) at 1uM” value was 7.06%.

Take `Oc1ccc(C2C(c3ccccc3)=NN=C(c3ccc(Cl)cc3)N2O)c(O)c1` (stereo not shown): the “hERG current change (%, negative = inhibition) at 1uM” value was found to be 1.57%.

Consider `Cc1ccc(/C=C/C(=O)NC2CCS(=O)(=O)C2)cc1` (stereo not shown), for which the “hERG current change (%, negative = inhibition) at 1uM” value stood at 8.88%.

As to `Cn1ncc(Br)c1C(=O)Nc1c(F)c(F)cc(F)c1F`, the “hERG current change (%, negative = inhibition) at 1uM” value worked out at 8.9%.

In the case of `O=C(c1cc(Br)c(Br)s1)N1CCOCC1`, the “hERG current change (%, negative = inhibition) at 1uM” value is reported as 14.3%.

For the molecule `CC1=NN(c2ccc(Cl)cc2)C(=O)C1C(c1cccc(O)c1)c1c(C)[nH]n(-c2ccc(Cl)cc2)c1=O` (stereo not shown), the “hERG current change (%, negative = inhibition) at 1uM” value turned out to be 3.44%.

Consider `COC(=O)c1ccc(C2C(Oc3ccccc3)C(=O)N2CCc2ccc(OC)c(OC)c2)cc1` (stereo not shown), for which the “hERG current change (%, negative = inhibition) at 1uM” value is on record as 14.2%.

In the case of `COc1ccc2c(c1)NP(=S)(Oc1ccccc1)N2` (stereo not shown), the “hERG current change (%, negative = inhibition) at 1uM” value was determined as 6%.

Take `COCCNC(=O)Cn1nc(-c2ccccc2)c2ccccc2c1=O`: the “hERG current change (%, negative = inhibition) at 1uM” value is listed as 11.9%.

Consider `CC1CCc2nc(/C(C#N)=C/c3ccncc3)sc2C1` (stereo not shown), for which the “hERG current change (%, negative = inhibition) at 1uM” value is 9.29%.

As to `CCc1ccc(NC(=O)C2CCCN(S(=O)(=O)c3ccc4c(c3)CCCN4C(C)=O)C2)cc1` (stereo not shown), the “hERG current change (%, negative = inhibition) at 1uM” value was found to be 7.33%.

As to `Cc1ccc(C(=O)C2(C)C3c4cc(Br)ccc4OC(=O)C32C(=O)c2ccco2)cc1` (stereo not shown), the “hERG current change (%, negative = inhibition) at 1uM” value came out at 7.08%.

Turning to `COc1ccccc1N(CC(O)CN1C(=O)NC(C)(C)C1=O)S(=O)(=O)c1ccc(C)cc1` (stereo not shown), the “hERG current change (%, negative = inhibition) at 1uM” value is given as 5.9%.

Consider `CCN(CC)CCNC(=O)c1cc(-c2ccco2)nc2ccccc12.Cl`, for which the “hERG current change (%, negative = inhibition) at 1uM” value is reported as -55%.

Regarding `COc1ccc(OC)c(N/C(=N/C(=S)Nc2ccccc2)Nc2nc(C)cc(C)n2)c1`, the “hERG current change (%, negative = inhibition) at 1uM” value is 9.92%.

On to `Cc1cc(=O)oc2cc(OCC(=O)OCC(=O)NC(C)C)ccc12`, for which the “hERG current change (%, negative = inhibition) at 1uM” value turned out to be 12.9%.

Turning to `COc1ccc(OCC(O)CNC(=O)Nc2cccc3ccccc23)cc1` (stereo not shown), the “hERG current change (%, negative = inhibition) at 1uM” value is listed as 12.4%.

For `Cc1ccc(NN=C2C(=O)OC(C)(C)OC2=O)c(C)c1`, the “hERG current change (%, negative = inhibition) at 1uM” value was 19%.

Regarding `CC1CCCC(NC(=O)CSc2ccc(F)cc2)C1C` (stereo not shown), the “hERG current change (%, negative = inhibition) at 1uM” value is given as 10.7%.

On to `Cc1cc(=O)[nH]c(SCc2cc(Cl)ccc2OC(F)F)n1`, for which the “hERG current change (%, negative = inhibition) at 1uM” value is on record as 12.4%.

Turning to `COc1cc(NC(=O)c2ccccc2F)ccc1NC(=O)c1ccccc1Cl`, the “hERG current change (%, negative = inhibition) at 1uM” value is 3.31%.

As to `CCN(CC1COc2ccccc2O1)C(=S)NCCCN(C)C` (stereo not shown), the “hERG current change (%, negative = inhibition) at 1uM” value was 0.621%.

For the molecule `O=C(NCc1ccccc1Cl)C(=O)NCC(c1ccco1)N1CCOCC1` (stereo not shown), the “hERG current change (%, negative = inhibition) at 1uM” value amounted to 1.61%.

On to `Cc1ccccc1OCc1nnc(SCC(=O)NCc2ccco2)n1C`, for which the “hERG current change (%, negative = inhibition) at 1uM” value was found to be 8.25%.

Consider `CCCCOC(=O)NCN1C(=O)C2C3C=CC(C3)C2C1=O` (stereo not shown), for which the “hERG current change (%, negative = inhibition) at 1uM” value was determined as 3.08%.

In the case of `Cc1nc(NC(=O)CCC(=O)O)sc1C(=O)N(C)C`, the “hERG current change (%, negative = inhibition) at 1uM” value is given as 18.1%.

As for `CCN(CC)c1ccc(C=Nc2cc(C)cc(C)c2)c(O)c1`, the “hERG current change (%, negative = inhibition) at 1uM” value was found to be 15.1%.

With `O=C(CN1CCN(c2ccccn2)CC1)Nc1ccc([N+](=O)[O-])cc1C(=O)Nc1ccccc1F`, the “hERG current change (%, negative = inhibition) at 1uM” value was -11.8%.

Take `CCOc1ccc(NC(=O)CCN2CCN(c3ccccc3)CC2)cc1`: the “hERG current change (%, negative = inhibition) at 1uM” value is 3.48%.

On to `COc1ccc(-c2ccccc2NC(=O)C2CCCN(Cc3ccco3)C2)cc1` (stereo not shown), for which the “hERG current change (%, negative = inhibition) at 1uM” value is reported as -4.31%.

As to `CCOC(=O)C1(CCCc2ccccc2)CCN(C(=O)C2CCCN(C(N)=O)C2)CC1` (stereo not shown), the “hERG current change (%, negative = inhibition) at 1uM” value was -48.6%.

As for `COc1cc(OC)cc(C(=O)NCC(=O)OCc2ccc(Cl)c(Cl)c2)c1`, the “hERG current change (%, negative = inhibition) at 1uM” value is -0.0766%.

The values are drawn from publication PMC4336329 (PLoS ONE, 2015).
